Source: PubChem BioAssay AID256 (DTP/NCI, 2004)
Inconclusive results and toxic doses are left out. A number of entries come with more than one value. The list is limited to them. An entry can have further records. The records of an entry do not match, cause unknown; they may come from other doses, times, organisms or constructs than stated.

Tested on: CD2F1 mice, L1210 leukemia ip, survival T/C
Test: NCI In Vivo Anticancer Drug Screen. Data for tumor model L1210 Leukemia (intraperitoneal) in CD2F1 (CDF1) mice
Conditions: endpoint: median survival time; dose: 0.19 mg/kg/injection; schedule: Q01DX009 (ip); vehicle: saline; higher = longer survival
Method: The antitumor activity of compounds was measured in mice bearing transplantable tumors. Survival or tumor size were measured and the results are expressed as the measurement made in the treated group (T) divided by the measurement made in the vehicle treated control group (C). The tumor model used in this assay is L1210 Leukemia (intraperitoneal) in CD2F1 (CDF1) mice

In the case of NCCCNCCCCNC(=O)C(O)NC(=O)CCCCCCN=C(N)N (stereo unspecified), the T/C is reported as 121 % of control and 155 % of control.
